In PubChem BioAssay AID504832 (National Center for Advancing Translational Sciences (NCATS), 2011):
Screen size: about 310,000 compounds; about 18,000 (5.8%) were called active. The inconclusive results got no clear call from the source; some entries with a clear call stand among them for comparison. Calls follow the shape of the dose curve; as a rule, active = well fitted inhibition curve with a large enough effect; inconclusive = small, poorly fitted or top-dose-only effect, or another doubt; inactive = no such curve, though single readings can be large or run the other way. Potencies of inconclusive entries are left out as doubtful fits.

Assay: Primary qHTS for delayed death inhibitors of the malarial parasite plastid, 48 hour incubation
Conditions: P. falciparum luciferase growth in erythrocytes; series mostly up to 28.7 µM
How it was run: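 Growth was read as firefly luciferase luminescence after a 48 h, 37 C, 5% CO2 exposure of compounds to reporter-bearing P. falciparum cultures (0.1% parasitemia, 2% hematocrit final) in Albumax-supplemented RPMI 1640.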
Potency is read from the fitted curve at half-maximal effect; tags tell the direction and shape of the fitted curve.

| SMILES | Potency |
| --- | --- |
| Cc1ccc(S(=O)(=O)CCC(=O)Nc2cc(Cl)ccc2-n2cncn2)cc1 | inconclusive [inhibitor, partial curve] |
| CCC1(C)Cc2c(sc3c2c(=O)n(C)c2nnc(SCc4ccccc4)n32)CO1 (stereo not drawn) | inconclusive [inhibitor, partial curve, poor fit] |
| Cc1c(C(=O)N2CCc3ccccc3C2)oc2ccc(Br)cc12 | inconclusive [inhibitor, single point] |
| CNCC/C=C1/c2ccccc2CSc2ccccc21 | inconclusive [inhibitor, single point] |
| CC(C)c1c(C(=O)N/N=C/c2ccc(Cl)cc2Cl)nnn1-c1nonc1N | inconclusive [inhibitor, partial curve, poor fit] |
| COc1cccc(NC(=O)c2cc3c(=O)n4ccccc4nc3n(CC(C)C)c2=N)c1 | inconclusive [inhibitor, single point] |
| O=C1CSC(c2ccc3c(c2)OCO3)N1c1ccc(Oc2ccccc2)cc1 (stereo not drawn) | inconclusive [inhibitor, single point] |
| COc1ccc(/C(C)=N/Nc2ncc(Cl)cc2Cl)c(O)c1 | inconclusive [inhibitor, single point] |
| CC(C)C(=O)NC(=S)NCC(=O)c1ccccc1 | inactive |
| O=c1cc(CSc2nc3cc(Cl)ccc3o2)nc2sccn12 | inconclusive [inhibitor, full curve, poor fit] |
| Cc1ccc(Cc2nnc(SCC(=O)Nc3ccccc3Cl)[nH]c2=O)cc1 | inconclusive [inhibitor, full curve] |
| CCCN1CCN(C(=S)Nc2ccc3nc(N4CCN(CC)CC4)cc(C)c3c2)CC1 | inconclusive [inhibitor, partial curve, poor fit] |
| CC(=O)OC1C2CCC1C([N+]1(C)CCCCC1)CC2 (stereo not drawn) | inconclusive [inhibitor, single point] |
| COc1ccc(S(=O)(=O)N(CCCN2CCOCC2)Cc2ccc(OC)c(OC)c2)cc1 | inconclusive [inhibitor, single point] |
| CCOc1cc(/C=N/O)ccc1OCc1ccc([N+](=O)[O-])cc1 | inactive |
| Cc1ccc(-c2cc(-c3ccccc3O)nc(N/N=C/c3cccnc3)n2)cc1 | inconclusive [inhibitor, partial curve] |
| CC(C)NC(=O)Cn1cc(C(=O)C2CC2)c2ccccc21 | inactive |
| Cc1cc(/C=C2/NC(=O)N(Cc3ccccc3F)C2=O)c(C)n1C | active: 10.4 µM |
| Cc1ccc(C)c(CN2CCC(CNC(=O)CCc3nnc4ccc(N5CCC(C)CC5)nn34)CC2)c1 | inconclusive [inhibitor, single point] |
| Cc1ccc(-c2cc(C(=O)Nc3ccccc3C)c3ccccc3n2)o1 | inconclusive [inhibitor, single point] |
| OCCn1c(-c2ccc3c(c2)OCO3)csc1=Nc1ccccc1 | inactive |
| COc1cc(OC)c(C(=O)/C=C/c2ccc(OCc3ccccc3)c(OC)c2)c(OC)c1 | inconclusive [inhibitor, partial curve, poor fit] |

| SMILES | Potency |
| --- | --- |
| COc1ccc(CNC(=O)CCCn2nc(C)c3c(C)n(-c4ccc(C)cc4)nc3c2=O)cc1OC | inconclusive [inhibitor, partial curve] |
| CCOc1ccc(NC(=O)CN(C)C(=O)c2c(-c3ccccc3)noc2C)cc1OCC | inconclusive [inhibitor, partial curve, poor fit] |
| Cc1cc(C(=O)CN2C(=O)C(=O)N(Cc3ccccc3)C2=O)c(C)n1CC1COc2ccccc2O1 (stereo not drawn) | inconclusive [inhibitor, single point] |
| COc1ccccc1NC(=O)NNC(=O)CCc1ccccc1 | inactive |
| O=C(Nc1cccc(Cl)c1)N1CCN(c2ncccn2)CC1 | inactive |
| O=C1c2ccccc2C(=O)N1CC1CCCO1 (stereo not drawn) | inactive |
| O=C(N/N=C/c1ccccn1)c1[nH]c2ccc([N+](=O)[O-])cc2c1-c1ccccc1 | inconclusive [inhibitor, single point] |
| COc1ccc(CCN2C(=O)c3cccc4cccc(c34)C2=O)cc1OC | inactive |
| O=C(Nc1ccc(Cl)cc1)NC1CCCCC1 | inactive |
| CCCCCNC(=O)c1ccc2c(c1)ncn2-c1ccc(OC)cc1 | inconclusive [inhibitor, partial curve] |
| CCc1ccc(NC(=O)C(C)OC(=O)c2ccc(NS(=O)(=O)c3ccc(C)c([N+](=O)[O-])c3)cc2)cc1 (stereo not drawn) | inactive |
| Cc1ccccc1NC(=O)Cc1nc(COC(=O)c2cccc([N+](=O)[O-])c2)cs1 | inactive |
| Cc1cc(Br)ccc1S(=O)(=O)NCc1ccccc1 | inconclusive [inhibitor, partial curve] |
| CC(C)(C)NS(=O)(=O)c1ccc(CCC(=O)Nc2cc(Cl)ccc2Oc2ccccc2)cc1 | active: 4.15 µM |
| C=CCn1c(SCC(=O)N(C(C)CC)C2CCS(=O)(=O)C2)nc2ccccc2c1=O (stereo not drawn) | inconclusive [inhibitor, partial curve] |
| Cc1ccc(S(=O)(=O)N2CCN(C(=O)CSc3n[nH]c(N)n3)CC2)c(C)c1 | inconclusive [inhibitor, single point] |
| CC(C)C(C)NC(=O)COc1ccc(S(=O)(=O)N2CCOCC2)cc1Cl (stereo not drawn) | inconclusive [inhibitor, single point] |
| COc1ccc(NC(=O)CN(C)C(=O)c2cn(-c3ccccc3)nc2-c2cccs2)cc1 | inconclusive [inhibitor, partial curve] |
| CCOc1ccccc1NC(=O)CN(C)S(=O)(=O)c1cccc2nsnc12 | inconclusive [inhibitor, partial curve, poor fit] |
| O=C(CCc1ccc(S(=O)(=O)NC2CCCCC2)cc1)Nc1ccccc1 | inconclusive [inhibitor, single point] |
| Cc1c(C(=O)N2CCC3(CC2)OCCO3)sc2ncnc(N3CCN(c4ccccn4)CC3)c12 | inconclusive [inhibitor, single point] |
